# Some of the results follow. One pool of 16,384 single-stranded DNAs met each Rep nickase domain in vitro at 3 µM enzyme and 37 °C for 1 h; the strands have 90 letters, of which the middle is given. Values are log2 of uncut reads against the no-enzyme pool; uncut sequences lie near 0, cut ones below; no hit call is given. Because reads are shares of a total, they shift together, so uncut sequences can rise above 0 when many others are cut.
# Tested on: T1, Rep nickase domain of tomato golden mosaic virus
# T1 sequence (residues 1-124 of Rep, tag left off): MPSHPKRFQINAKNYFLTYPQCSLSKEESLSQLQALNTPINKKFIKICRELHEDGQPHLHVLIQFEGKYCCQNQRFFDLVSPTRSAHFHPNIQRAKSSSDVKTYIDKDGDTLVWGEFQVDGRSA
# Experiment: uncleaved DNA left, log2 of reads against the no-enzyme library (log2 ratio); higher = less cleavage (more negative = more Rep cleavage of the k-mer); sequences stand for … in CTCGTCCG…ACCGGAGA
# Experimental: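 A pool of 90-nt single-stranded DNAs with seven random bases just before the constant AC of the nick site (name = the seven bases) was cut by 3 µM recombinant His6-SUMO-tagged Rep nickase domain (300 nM DNA, 50 mM HEPES pH 8.0, 50 mM NaCl, 1 mM MnCl2, 1 h, 37 °C, three replicates). Uncut DNA was amplified and sequenced.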
row,Sequence,uncleaved DNA left (log2)
1,CTACATT,-0.305
2,GCTCTAG,-0.113
3,CTAAGGT,-0.037
4,GTACGGG,0.136
5,CAGGATT,0.0777
6,CAATATT,-4.73
7,CGGGGTA,0.106
8,CGAACGC,0.00865
9,AAAGTGG,0.0566
10,AGACTGC,0.0325
11,CGTGTAA,0.141
12,GCTCCAT,0.145
13,AATATGA,0.115
14,GTAGAGG,-0.0258
15,GGGAGTC,0.0118
16,GCGATAC,0.0128
17,AGGAGCA,-0.0749
18,TCGCCCC,-0.297
19,GTCGTAT,0.0331
20,AAGGATG,0.104

row,Sequence,uncleaved DNA left (log2)
1,TTTCTGG,0.033
2,TAACATG,0.11
3,ACGGTTC,0.16
4,AGCCCGT,-0.0331
5,GGTGGAT,0.191
6,CGGGAGT,-0.232
7,CGTCCAG,-0.0768
8,GACTGGA,-0.079
9,CCGGTTT,0.0263
10,CACAAGG,0.128
11,GCTTAGT,0.0426
12,GCATGTA,0.104
13,GTGTGCG,-0.115
14,AGACATA,-0.0289
15,CAAAAAA,0.185
16,ATCTTAT,0.126
17,AGGCGTT,-0.0665
18,GATCACC,0.0029
19,CTCGGCG,-0.0394
20,CGGGCTC,-0.0114
